From US20210230266A1 (SINGAPORE HEALTH SERVICES PTE, published 2021)

What was measured:
Human IL-11 = target: T1, Human IL-11 (human, UniProt P20809 22-199); assay: ELISA
T1 construct: Recombinant human IL-11 (GenScript Cat. No. Z03108-1) or IL-11 secreted by human cells; the mature form is said to have 178 residues; also called recombinant human IL-11; endogenously produced IL-11
T1 sequence: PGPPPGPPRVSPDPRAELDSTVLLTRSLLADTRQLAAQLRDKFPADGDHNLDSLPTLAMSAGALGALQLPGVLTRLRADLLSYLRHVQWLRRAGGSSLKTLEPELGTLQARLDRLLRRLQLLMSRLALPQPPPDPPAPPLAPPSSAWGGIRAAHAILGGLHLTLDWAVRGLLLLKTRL
Description: (§1) The soluble scFv were produced by recombinant expression in E. coli, and analysed for their ability to bind to human IL-11 and murine IL-11 by ELISA. Briefly, the respective antigen was coated to wells of an ELISA plate, the cell culture supernatant containing the respective scFv was added at a 1:2 dilution, and binding was detected.

Mouse IL-11 = target: T2, Mouse IL-11 (mouse, UniProt P47873 22-199, limits assumed); assay: ELISA
T2 construct: also called murine IL-11; recombinant murine IL-11
T2 sequence (looked up): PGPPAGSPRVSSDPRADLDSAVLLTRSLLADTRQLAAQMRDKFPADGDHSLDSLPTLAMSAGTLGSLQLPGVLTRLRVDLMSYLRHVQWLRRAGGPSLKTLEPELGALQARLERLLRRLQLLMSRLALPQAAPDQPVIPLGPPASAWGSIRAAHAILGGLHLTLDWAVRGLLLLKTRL
Description: as §1

B1: YU112-E08 (antibody)
chain: VTLKESGGGVVQPGRSLRLSCAASGFTFSSYGMHWVRQAPGKGLEWVAVISYDGSNKYYADSVKGRFTISRDNSKNTLYLQMNSLRAEDTAVYYCAKGGKSYYGFDYWGQGTLVTVSSGSASAPKLEEGEFSEARV[about 100 residues left out here]TWTFGQGTKVEIK
hIL11 - average signal (Human IL-11): 0.373
mIL11 - average signal (Mouse IL-11): 0.323
